Assay results: the supplement of paper PMC4723716
In all, about 3,600 compounds were measured (“viability index relative to DMSO control”: median about 0.81, lowest 2% from about 0.13 on). The list shows a part of the results.

These molecules were tested on Plasmodium falciparum NF54 stage V gametocytes (assay: viability index relative to DMSO control (fraction); higher = less gametocyte killing). Settings: 1.25 µM, incubation time: 72 h.
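Also: 384-well serum-free SaLSSA: MitoTracker Red CMXRos staining with saponin lysis, high-content imaging, treated-well particle count divided by plate-mean count of DMSO wells.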

SMILES | viability index
COC(=O)C1=C(C)NC2=C(C(=O)CC(C)(C)C2)C1c1ccccc1[N+](=O)[O-] (stereo not given) | 0.87
CCC(=O)N1CCc2cc(Br)cc(S(=O)(=O)N3CC(C)CC(C)C3)c21 (stereo not given) | 0.842
CCOc1ccc2[nH]c3c(NCCCN4CCOCC4)ncnc3c2c1 | 0.843
CCCCOc1ccc(C(O)C(CN2CCCCC2)c2ccccc2)cc1 (stereo not given) | 0.842
O=C1C2C(C(=O)N1c1ccccc1F)C1(c3ccccc3)C(=O)C2(c2ccccc2)C(c2ccccc2)=C1c1ccccc1 (stereo not given) | 0.943
COc1cc(OC)c(N(C)C(=O)c2cn(C3CCCC3)c(=O)c3c2c2ccccc2n3C)cc1Cl | 0.566
O=C(CCCOc1ccc(Cl)cc1Cl)NCCCn1ccnc1 | 1.08
COc1ccc2nc(NC(N)=NC(=O)Nc3ccccc3)nc(C)c2c1 | 0.923
CC(=O)N(C1=C(N2CCCC2)C(=O)c2ccccc2C1=O)c1ccc(F)c(F)c1 | 0.743
CCOC(=O)C1=C(C)NC2=C(C(=O)CC(c3ccc(Cl)cc3)C2)C1c1ccc(Cl)cc1 (stereo not given) | 0.626
CC(C)(C)C(=O)Cn1ccc(=N)c2ccccc21 | 1.15
COc1ccc(NC2=C(N3CCCCC3)C(=O)c3ccccc3C2=O)cc1 | 0.181
Cc1ccc(-c2cc(-c3ccccc3)c(C#N)c(SCC(O)CS(=O)Cc3ccccc3)n2)cc1 (stereo not given) | 0.876
Cc1cccn2c(=O)c3cc(C(=O)NC4CCCC4)c(=N)n(CCc4ccccc4)c3nc12 | 0.614
Cc1ccc2nc3c(c(Nc4ccc(N(C)C)cc4)c2c1)CCC3 | 0.823
CC[n+]1c(C=C2Sc3ccccc3N2CCO)sc2ccccc21 | 0.88
Cc1cc2c(Nc3cccc(Cl)c3C)ncnc2s1 | 0.857
CCc1ccccc1N(CC(=O)NC1CCCCC1)C(=O)CCC(=O)Nc1ccccn1 | 0.938
CC(NC(=S)N(Cc1ccco1)Cc1cc2cc3c(cc2[nH]c1=O)OCO3)c1ccccc1 (stereo not given) | 0.627
C(=NNc1nc2ccccc2[nH]1)c1ccc2c(c1)OCO2 | 0.645
CCOC(=O)C1=C(C)NC2=C(C(=O)CC(c3ccc(OC)c(OC)c3)C2)C1c1ccccc1Cl (stereo not given) | 0.228
O=C(CCCc1nc(-c2ccccc2)no1)NCc1cccnc1 | 0.964
CCc1c(C)c(=N)c2ccccc2n1C | 0.801
O=C(Nc1ccc2c(c1)S(=O)(=O)c1cc(NC(=O)c3cccs3)ccc1-2)c1cccs1 | 0.649
CCn1c(N=Nc2ccc(OC)cc2)nc2ccccc21 | 0.269
